Laboratory results reported in paper PMC6919601, “Identification of Plasmodium dipeptidyl aminopeptidase allosteric inhibitors by high throughput screening” (PLoS ONE, 2019).
Hit rate of the full screen: of about 110,000 compounds, about 230 (0.21%) showed an effect of 50% or more. Some of the results follow.

Biological target: DPAP1 (Plasmodium falciparum, UniProt Q8IIJ9)
Assay: primary screen, percent inhibition; read by cleavage of a fluorogenic dipeptide substrate; higher = more effect of the substance
Design: species or system P. falciparum D10 trophozoite lysates; single well
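Also: 30 min substrate incubation versus DMSO and 10 µM JCP410 controls.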

Chain of DPAP1 (Q8IIJ9 whole entry, looked up): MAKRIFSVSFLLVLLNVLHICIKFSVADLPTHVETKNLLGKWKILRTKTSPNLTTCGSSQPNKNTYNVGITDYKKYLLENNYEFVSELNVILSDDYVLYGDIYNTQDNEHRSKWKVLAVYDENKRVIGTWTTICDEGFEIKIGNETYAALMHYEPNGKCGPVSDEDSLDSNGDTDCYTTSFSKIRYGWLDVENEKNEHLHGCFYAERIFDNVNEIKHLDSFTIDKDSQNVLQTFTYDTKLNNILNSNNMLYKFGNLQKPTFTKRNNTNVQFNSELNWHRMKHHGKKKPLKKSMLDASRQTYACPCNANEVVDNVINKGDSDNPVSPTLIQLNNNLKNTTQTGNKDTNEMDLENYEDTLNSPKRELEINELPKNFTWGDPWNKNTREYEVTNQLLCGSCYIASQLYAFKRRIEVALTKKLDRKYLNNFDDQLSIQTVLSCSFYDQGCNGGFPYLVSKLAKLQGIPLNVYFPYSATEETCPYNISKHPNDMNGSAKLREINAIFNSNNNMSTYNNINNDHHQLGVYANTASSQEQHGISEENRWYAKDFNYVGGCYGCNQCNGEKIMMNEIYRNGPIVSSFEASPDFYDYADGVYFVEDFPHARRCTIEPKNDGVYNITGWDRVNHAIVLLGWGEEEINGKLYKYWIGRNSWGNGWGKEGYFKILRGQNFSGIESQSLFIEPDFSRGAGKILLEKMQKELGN

SMILES | % Inhibition @ 10 uM [%]
Nc1nc(CN2CCCCCC2)nc(Nc2ccc(F)cc2)n1 | -6.66
Cc1cccc(N2CCN(C(=O)c3cccnc3)CC2)c1C | 1.64
CC1CCCC(NC(=O)C(NS(=O)(=O)c2cccc3nsnc23)c2ccccc2)C1C (stereo not drawn) | -3.23
Cc1ccc2oc(=O)c3cc(C(=O)N4CCC5(CC4)OCCO5)sc3c2c1 | 1.66
CC(C)OC(=O)NC1c2ccccc2CSc2ccccc21 (stereo not drawn) | -5.35
C=CCOc1ccc(C(=O)N(Cc2ccc(OC)cc2)C2CCS(=O)(=O)C2)cc1 (stereo not drawn) | -4.85
CCC(C)NC(=O)c1cc2c(=O)n3cccc(C)c3nc2n1C (stereo not drawn) | 5.09
CO/C(O)=C1\C(C)=Nc2nc(-c3ccccc3)nn2C1c1ccc(C)o1 (stereo not drawn) | -2.9
O=C(CCCc1c[nH]c2ccccc12)NCc1ccccc1C(F)(F)F | 0.238
CCc1nc(N=C(N)N)nc2ccccc12 | -4.58
COc1cc(/C=C2\N=C(c3ccccc3C)OC2=O)cc(OC)c1OC | -4.5
CNc1oc(-c2ccc(Cl)cc2Cl)nc1S(=O)(=O)c1ccccc1 | -3.69
FC(F)(F)c1cc(-c2ccc(Cl)cc2)nc(-n2cccn2)n1 | -4.43
O=C1c2n[nH]c(-c3ccccc3O)c2C(c2ccccc2F)N1Cc1ccco1 (stereo not drawn) | 0.366
CCOC(=O)c1c(NC(=O)c2cc(=O)c3cc(C)c(C)cc3o2)sc2c1CCCC2 | -3.24
COc1ccc2nc3sc(C(=O)N4CCN(Cc5ccc6c(c5)OCO6)CC4)cc3cc2c1 | -1.55
Cc1nn(C)c(C(=O)Nc2cnn(Cc3ccc(Cl)cc3Cl)c2)c1Br | -4.21
CCOC(=O)c1[nH]c2sc(C)c(C)c2c1N | -3.08
Cc1ccc2[nH]c(SCC(O)c3ccccc3)nc2c1 (stereo not drawn) | -1.31
CCc1ccc(C2C3=C(O)CCCC3=NC(C)=C2C(=O)Nc2ccc(F)cc2)cc1 (stereo not drawn) | 4.11
N#C/C(=C\c1cccc2ccccc12)c1nc(C2CC2)cs1 | -2.51
CCOc1ccc(C(=O)Nc2cccc(Cl)c2)cc1 | 2.43
COc1ccc(N2C(=O)CC(Sc3nccc(C)n3)C2=O)cc1 (stereo not drawn) | 0.727
CCc1c(C)nc(SCC(N)=O)c(C#N)c1C | -2.44
Cn1c(=O)[nH]c(=O)c2c1nc(N=Nc1c(O)[nH]c3ccc(Br)cc13)n2CC(O)CO (stereo not drawn) | 8.01

SMILES | % Inhibition @ 10 uM [%]
Cc1ccc(C(=O)N/C(=C\c2ccco2)C(=O)N2CCCCCCC2)cc1C | -2.88
COc1ccc(CCNC(=O)CN(C)S(=O)(=O)c2ccc3[nH]c4c(c3c2)CCCC4)cc1OC | 2.97
COc1ccc(NC(=O)c2nc3nc(-c4cccs4)cc(C(F)(F)F)n3n2)c(OC)c1 | 14.4
CC(=O)/C(=C\Nc1nc(C)c(Br)c(C)n1)C(=O)Nc1ccccc1 | -4.12
CCN(CC)C(=O)c1ccc(COc2cccc3ccccc23)o1 | -3.13
CCCCN(C)c1ncnc2scc(-c3ccccc3)c12 | -1.48
CC1CCN(CC(O)COc2ccc(C(C)C)cc2)CC1 (stereo not drawn) | -9.51
O=C(O)c1ccccc1C(=O)Nc1ccccc1NC(=O)c1ccccc1C(=O)O | 0.0974
COc1cc(C)c(CN2CCC(N3CCCCC3)CC2)cc1C | -0.0494
CCN1CCN(Cc2ccc3c(c2)OCO3)CC1 | 3.16
C=CCOc1c(Br)cc(CNc2nccs2)cc1OCC | -7.28
CCC(C(=O)Nc1ccc(Cl)cc1)c1ccccc1 (stereo not drawn) | -7.11
CC(NC(=O)c1nnc(Cc2ccc(Cl)cc2)o1)c1ccccc1 (stereo not drawn) | -0.414
Cc1ccc(-c2ccccc2)n1-c1cccnc1 | 3.65
O=C(O)C1CCCCC1C(=O)NCCc1ccncc1 (stereo not drawn) | 0.64
Cc1nn(CC(=O)NC(C)C23CC4CC(CC(C4)C2)C3)c(=O)c2c1sc1ccccc12 (stereo not drawn) | -0.856
CN(C)c1ccc(/C=C/c2nc(=O)c3ccccc3o2)cc1 | 26.3
CCc1ccc(S(=O)(=O)Nc2cccc(-c3cn4ccsc4n3)c2)cc1 | 1.37
CCN(CC)Cc1nc(O)c2c(n1)-c1ccccc1CC21CCCC1 | -3.44
O=C(CCC1CCCCC1)N1CCN(C(=O)CCC2CCCCC2)CC1 | 2.03
CN1C(=O)N(C)C(=O)C(Cc2ccccc2)(Cc2ccccc2)C1=O | 2.58
CC(C)c1c(O)n2nc(-c3ccccc3)ccc2[n+](-c2ccc(F)cc2)c1=O | 1.58
CCc1cccc(-n2nnc(-c3nsc(NC(=O)c4ccccc4)n3)c2C)c1 | -5.47
COC(=O)c1ccc(CN(CCc2ccccc2)Cc2ccccc2)cc1 | -3.57
O=C(Cn1sc2ccccc2c1=O)NC1CCCc2ccccc21 (stereo not drawn) | -6.47

SMILES | % Inhibition @ 10 uM [%]
CC(C)Cn1cc(C(=O)NCc2ccc(F)cc2Cl)c2c3ccccc3n(C)c2c1=O | -5.77
Cc1ccc(Cl)cc1NC(=O)COc1ccc(Br)cc1 | 4.22
COc1cccc2cc(-c3nc(O)c4c(C)c(C(=O)Nc5ccccn5)sc4n3)c(=O)oc12 | -2.88
Cc1c(CNCCC(C)C)c(C(=O)O)c(C)n1Cc1ccccc1F | 1.41
CC1CCC(NCCN2CCCCC2)C1 (stereo not drawn) | -1.64
CCc1nn(C(C)C(=O)NCc2ccc(OC(C)C)cc2)c(=O)c2cc3occc3n12 (stereo not drawn) | -5.15
c1ccc(CN2CCN(c3ccccn3)CC2)cc1 | -0.294
Cc1ccc(-c2nc(CSCC(=O)N3CCN(C(=O)c4ccco4)CC3)c(C)o2)cc1 | -2.85
COc1ccc(OC)c(CN2CCCN(C)CC2)c1 | -1.77
Cn1c(=O)n(C)c2cc(/C=C3/SC(=O)N(CC(=O)Nc4ccc(F)cc4)C3=O)ccc21 | -1.79
CC[C@H](NC(=O)C(Cc1c(F)cccc1F)NC(=O)c1ccc(-c2ccccc2Cl)cc1)C(=O)c1nc2ncccc2o1 (stereo partly drawn) | -5.2
CC(C)(C)OC(=O)N1CCN(S(=O)(=O)c2ccc(C(=O)NC3(C(=O)NCC#N)CCCCC3)cc2)CC1 | -1.41
COc1cc2c(cc1OC)CN(C(=O)C(c1ccccc1)c1ccccc1)CC2 | 0.222
O=C(CSc1nnc(-c2ccccc2)o1)N1CCOCC1 | -0.999
COc1cc2oc(C(=O)N3CCN(Cc4ccccc4)CC3)c(C)c2cc1Br | -1.76
CCC(NS(=O)(=O)c1ccc(C)cc1)C(=O)N1CCCCC1 (stereo not drawn) | -5.28
COc1ccc(C2C(C#N)=C(N)Oc3ncnc(O)c32)cc1Br (stereo not drawn) | -2.77
Cc1nc2ccccc2n1CCc1nc2c3ccccc3nc(NCC3CCCO3)n2n1 (stereo not drawn) | -4.21
CCN(CC)c1ccc(C2C(C#N)=C(N)N(c3cccc(C)c3)C3=C2C(=O)CCC3)cc1 (stereo not drawn) | 3.15
CC(CCc1ccccc1)NC(=O)CCN1C(=O)c2ccccc2Sc2ncccc21 (stereo not drawn) | -18.3
CCN1C(=S)NC2c3cc(C(C)(C)C)cc(O)c3OC13CCCC23 (stereo not drawn) | -0.499
O=C(Cn1cc(S(=O)(=O)Cc2cccc(Cl)c2)c2ccccc21)NC1CCCC1 | -3.22
O=C(NCCc1c[nH]c2ccccc12)c1ccc([N+](=O)[O-])cc1 | -3.58
Cc1ccc(C)n1-c1nnc(N2CCCC(C(=O)NCc3ccco3)C2)s1 (stereo not drawn) | -2.37
Cc1ccc(-c2nnn(Cc3nc(O)c4ccccc4n3)n2)cc1 | -5.72

SMILES | % Inhibition @ 10 uM [%]
COc1ccc(-c2cc(-c3cccnc3)nc3ccc4ccccc4c23)cc1 | 3.48
CCOc1ccc(/C=C(\C#N)c2nc(-c3ccc(Br)cc3)cs2)cc1 | 0.912
COc1cc(C(C)=O)ccc1OCC(O)Cn1cncn1 (stereo not drawn) | 4.57
Cn1c(=O)c(C(=O)NC2CC2)c(O)c2ccccc21 | 0.345
Cc1ccccc1Cc1c(C)nc2c(C(=O)NCc3ccccn3)cnn2c1C | 1.27
Nc1c(C(=O)NCCC2=CCCCC2)nnn1-c1cccc(C(F)(F)F)c1 | 7.7
Cc1cc(C)c(NC(=O)c2cc(F)c(F)cc2Cl)c(C)n1 | 2.99
CN(C)Cc1cc(-c2ccccc2)c2ccccc2c1 | 0.343
COc1ccc(CN2CCN(Cc3ccc(C)cc3)CC2)c(OC)c1OC | 17.9
CCOc1ccc(/C=C2/SC(=O)N(Cc3cccc(C(=O)O)c3)C2=O)cc1 | 6.68
O=C(COc1ccccc1Br)c1ccc(O)cc1O | -3.06
O=C(NC1CCCCCCC1)c1cccs1 | 0.823
Cc1nn(-c2ccc(Cl)cc2Cl)c(=O)c2ccccc12 | -2.48
O=C(NCc1ccc(F)cc1)C1CCN(c2ccc(N3CCOCC3)nn2)CC1 | 3.75
CCOc1ccc(-c2nn(-c3ccccc3)cc2/C=c2\sc3nc(=O)c(C)nn3c2=O)cc1 | 1.32
Cc1ccccc1Cn1cc(SCC(=O)Nc2nccs2)c2ccccc21 | -4.82
CC(C)OCCCNC(=O)c1cc2c(=O)n3ccccc3nc2n1C | 4.03
O=C(CCn1c(=O)c2sccc2n(Cc2ccc(F)cc2Cl)c1=O)NCc1ccccc1 | 1.23
CCOc1ccc(NC(=O)CNS(=O)(=O)c2ccc(OC)cc2)cc1 | 9.79
Cc1ccccc1C1CC(=O)NC(SCC(=O)Nc2ccc(Br)cc2)=C1C#N (stereo not drawn) | 0.777
CCOC(=O)c1cccc(CNC(=O)[C@H](CCSC)N2Cc3ccccc3C2=O)c1 | -2.25
COc1ccc(NC(=O)c2cccc(NC(=O)c3ccc(Br)o3)c2)cc1 | -3.33
CCOC(=O)c1sc(Cl)nc1C | 4.01
CCOc1cccc2cc(-c3nc(-c4ccccc4F)no3)c(=O)oc12 | -2.26
